Measured values published in the antibiotic and cytotoxicity screens of Wong et al. (2023).
The list shows a part of the results.

What was measured:
[1] = system: HSkMC (human skeletal muscle cells); experiment: cytotoxicity call (relative viability < 0.9); details: 10 µM
[2] = system: HepG2; experiment: cytotoxicity call (relative viability < 0.9); details: 10 µM
[3] = system: S. aureus RN4220; experiment: growth inhibition call (relative growth <= 0.2); details: 50 µM

| SMILES | cytotoxicity call [1] | cytotoxicity call [2] | growth inhibition call [3] |
| --- | --- | --- | --- |
| Cc1ccc(S(=O)(=O)N(C)C[C@H]2Oc3ccc(NS(=O)(=O)c4ccccc4)cc3C(=O)N([C@H](C)CO)C[C@H]2C)cc1 | inactive | inactive | inactive |
| C[C@H](CO)N1C[C@H](C)[C@@H](CN(C)C(=O)Nc2ccc3c(c2)OCO3)Oc2c(NS(=O)(=O)c3cn(C)cn3)cccc2C1=O | inactive | inactive | inactive |
| CNC(=O)C[C@@H]1CC[C@H]2[C@@H](COC[C@@H](O)CN2C(=O)c2ccccn2)O1 | inactive | inactive | inactive |
| CCC(=O)N1CCO[C@]2(COCCN(CC(=O)NC)C2)C1 | inactive | inactive | inactive |
| CC(C)c1cc(C(C)C)c(CC(=O)NS(=O)(=O)Oc2c(C(C)C)cccc2C(C)C)c(C(C)C)c1 | active | active | inactive |
| CN(C)CC(=O)N[C@@H]1CC[C@H](CCn2cc(CN(C)C)nn2)O[C@H]1CO | inactive | inactive | inactive |
| C[C@@H]1CN([C@H](C)CO)C(=O)Cc2cc(NC(=O)Nc3ccccc3)ccc2O[C@@H]1CN(C)Cc1ccc(-c2ccccc2)cc1 | active | active | inactive |
| C[C@H](NC(=O)C[C@@H]1C=C[C@H](NC(=O)CN2CCOCC2)[C@@H](CO)O1)c1ccccc1 | inactive | inactive | inactive |
| C[C@@H]1CN([C@@H](C)CO)C(=O)Cc2cc(NC(=O)Nc3ccc(C(F)(F)F)cc3)ccc2O[C@H]1CN(C)C(=O)Nc1ccc(C(F)(F)F)cc1 | inactive | active | inactive |
| CNC(=O)C[C@@H]1CC[C@@H]2[C@H](COC[C@H](O)CN2C(=O)c2ccccn2)O1 | inactive | inactive | inactive |
